Assay results as given in PubChem BioAssay AID686978 (National Center for Advancing Translational Sciences (NCATS), 2013).
“And” between values parts separate entries of the source, which are not always exact repeats. Identical values can stand only once. About 64,000 (15%) of roughly 420,000 compounds were called active. Inconclusive means that the source gave no clear call. Such entries were picked first, then a sample of the others. Calls follow the shape of the dose curve; as a rule, active = well fitted inhibition curve with a large enough effect; inconclusive = small, poorly fitted or top-dose-only effect; inactive = flat fitted curve, though single readings scatter. Potencies beside an inconclusive call are fits to weak or partial responses and may not hold up.

Test: qHTS for Inhibitors of human tyrosyl-DNA phosphodiesterase 1 (TDP1): qHTS in cells in absence of CPT; also: nearly all actives have a fitted effect of over 55% in size
Details: DT40 Tdp1-/- hTDP1 cells, no CPT, ATP luminescence, 48 h; activity change, negative = growth inhibition: at 46.2 µM (top of the series) unless noted
In short: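 Chicken DT40 Tdp1-/- cells complemented with human TDP1, screened without camptothecin (DMSO vehicle only), 400 cells/well. Compounds pin-transferred, cells incubated at 37 °C for at least 48 hr. Growth read as ATP-dependent luminescence (CellTiter-Glo, 30 min at RT).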
% is scaled to controls: 0 for no effect and ±100 for the full control effect; potency is read from the fitted curve at half-maximal effect; tags tell the direction and shape of the fitted curve.

With `O=C(N/N=C/c1c[nH]c2ccc(Br)cc12)c1ccncc1` as the molecule, how does the Potency read?
Its Potency is inconclusive: 7.31 µM [inhibitor, partial curve].

For `COc1ccc(CN2C(=O)c3ccccc3C(/C=N\OCc3ccc(C)cc3)C2=O)cc1` (centres undefined), which Potency is on record?
The Potency was active: 20.6 µM.

For `Clc1ccc(-c2nnc(CSc3nnc(-c4cccs4)n3Cc3ccccc3)o2)cc1`, which Potency is on record?
The Potency was active: 2.91 µM.

With `O=[N+]([O-])c1ccc(Cc2nnc(-c3ccc(F)cc3)o2)cc1` as the molecule, how does the Potency read?
Its Potency is “inactive”.

Which Potency does the source give for `COc1ccc(CCNC(=O)C(=O)NCC2OCCN2S(=O)(=O)c2ccc(F)cc2)cc1` (centres undefined) here?
The Potency was inconclusive: 23.1 µM [inhibitor, partial curve].

With `Cc1ccc(C)c(NC(=O)Cn2c(=O)n(Cc3cccs3)c(=O)c3cccnc32)c1` as the molecule, how does the Potency read?
The Potency was active: 13 µM.

Which Potency does the source give for `Cc1cc(F)ccc1C(O)c1ncc(-c2cccc(OCc3ccccc3)c2)[nH]1` (centres undefined) here?
The Potency was active: 16.4 µM.

For `Nc1c(C(=O)Nc2ccc(Cl)cc2F)sc2nc(-c3cccs3)ccc12`, which Potency is on record?
The Potency was inconclusive: 29.1 µM [inhibitor, single point].

Which Potency does the source give for `CCCOc1ccc(C2=CC(=O)C[C@H](c3ccc(OC)cc3)C2)cc1` here?
Its Potency is inconclusive: 18.4 µM [inhibitor, single point].

With `COc1ccc(CNC(=O)C(C)c2ccc([N+](=O)[O-])cc2)cc1` (centres undefined) as the molecule, how does the Potency read?
The Potency was inconclusive: 20.6 µM [inhibitor, single point].

Which Potency does the source give for `Cn1c(=O)c([N+](=O)[O-])c(-n2ccnc2)c2ccccc21` here?
The Potency was active: 4.11 µM.

Which Potency does the source give for `c1coc(C2Nc3ccccc3-c3nc4ccccc4n32)c1` (centres undefined) here?
Its Potency is inconclusive: 16.4 µM [inhibitor, single point].

With `CCOC(=O)C(C)n1cnc2scc(-c3ccc(C)cc3)c2c1=O` (centres undefined) as the molecule, how does the Potency read?
Its Potency is inconclusive: 25.9 µM [inhibitor, partial curve].

With `COc1cc(OC)cc(C(=O)NC2CC3CCC(C2)N3Cc2ccco2)c1` (centres undefined) as the molecule, how does the Potency read?
Its Potency is “inactive”.

Which Potency does the source give for `Cc1ccc(S(=O)(=O)N2CCC3(CC2)OCCN3S(=O)(=O)c2c(C)cc(C)cc2C)cc1` here?
Its Potency is active: 16.4 µM.

With `CCCn1c(Nc2cccc(OC)c2)nc2ccccc21` as the molecule, how does the Potency read?
The Potency was inconclusive: 20.6 µM [inhibitor, single point].

Which Potency does the source give for `CC(C)c1ccc(S(=O)(=O)N2CCN(C(=O)C3CC3C)CC2)cc1` (centres undefined) here?
The Potency was inconclusive: 29.1 µM [inhibitor, single point].

With `CC(=O)c1ccc(S(=O)(=O)N2CCN(S(=O)(=O)c3ccccc3C(F)(F)F)CC2)cc1` as the molecule, how does the Potency read?
Its Potency is “inactive”.

With `CCn1c(-c2csc3c2CCC(C)C3)n[nH]c1=S` (centres undefined) as the molecule, how does the Potency read?
Its Potency is inconclusive: 29.1 µM [inhibitor, single point].

Which Potency does the source give for `Cc1ccccc1C(=O)Nc1ccc2nc(SCCOc3ccccc3)sc2c1` here?
Its Potency is inconclusive: 8.2 µM [inhibitor, partial curve].

Which Potency does the source give for `Cc1ccc(NC(=O)C/C(N)=N/OC(=O)Nc2cccc(Cl)c2)cc1` here?
Its Potency is “inactive”.

For `COc1cc(/C=C2/SC(=O)N(Cc3ccccc3)C2=O)ccc1OCc1ccncc1`, which Potency is on record?
The Potency was active: 11.6 µM.

With `Cc1ccc(Nc2ccc(NCc3ccccc3)nn2)cc1C` as the molecule, how does the Potency read?
The Potency was inconclusive: 20.6 µM [inhibitor, single point].

With `O=C(Cc1csc(N2CCOCC2)n1)N/N=C/c1ccc(Cl)cc1Cl` as the molecule, how does the Potency read?
Its Potency is inconclusive: 18.4 µM [inhibitor, partial curve].

For `COc1ccc(Cl)cc1N(C(=O)c1ccco1)C(C(=O)NC1CCCC1)c1ccncc1` (centres undefined), which Potency is on record?
Its Potency is inconclusive: 25.9 µM [inhibitor, single point].

Which Potency does the source give for `COc1cccc(Nc2nc(-c3sc(NC(=O)c4ccco4)nc3C)cs2)c1` here?
Its Potency is active: 23.1 µM.

For `CC1=C/C(=N\N=C2\NC(=O)C(CC(=O)Nc3ccccc3)S2)CC(C)(C)C1` (centres undefined), which Potency is on record?
The Potency was inconclusive: 29.1 µM [inhibitor, single point].

For `O=C(CN1CCN(C(=O)CNC(=O)c2ccc3c(c2)OCO3)CC1)Nc1ccc(F)cc1`, which Potency is on record?
The Potency was inconclusive: 6.51 µM [inhibitor, single point].

Which Potency does the source give for `Cc1ccc2c(c1)N(C(=O)c1ccco1)C(C)(C)c1ssc(=S)c1-2` here?
Its Potency is inconclusive: 29.1 µM [inhibitor, single point].

For `Cc1ccc(S(=O)(=O)c2nc(-c3ccccc3)oc2SCC(=O)NC2CCCCC2)cc1`, which Potency is on record?
The Potency was “inactive”.

Which activity change, negative = growth inhibition does the source give for `CCOC(=O)Cc1[nH]nc2c1C(c1ccsc1)C(C#N)=C(N)O2` (centres undefined) here?
Its activity change, negative = growth inhibition is inconclusive: -30.7% [inhibitor].

For `COC(=O)c1nn(-c2ccccc2)c(Cl)c1/C=N/OC(=O)c1ccc(Cl)c(Cl)c1`, which Potency is on record?
Its Potency is inconclusive: 29.1 µM [inhibitor, single point].

Which Potency does the source give for `COc1ccc(-c2c(C)nn3c(NC4CCCC4)cc(C)nc23)cc1OC` here?
The Potency was inconclusive: 23.1 µM [inhibitor, single point].

With `Cc1cccc(Nc2cc(=O)n(C)c(=O)[nH]2)c1` as the molecule, how does the Potency read?
The Potency was “inactive”.

For `COc1ccc(OC)c(N/C=C/C(=O)c2ccc(OC)c(OC)c2)c1`, which Potency is on record?
The Potency was inconclusive: 16.4 µM [inhibitor, single point].

Which Potency does the source give for `Cc1ccc(C(=O)NC(=S)Nc2ccccc2C(F)(F)F)cc1C` here?
Its Potency is inconclusive: 29.1 µM [inhibitor, single point].

Which Potency does the source give for `CCOC(=O)c1[nH]c(C)c(C(=O)N2CCc3ccccc32)c1C` here?
Its Potency is active: 0.92 µM.

For `Nc1[nH]c(C(=O)c2ccccc2)c(-c2ccccc2C(F)(F)F)c1C(=O)NCc1cccc2ccccc12`, which Potency is on record?
Its Potency is “inactive”.

Which activity change, negative = growth inhibition does the source give for `N#Cc1c(/N=C/c2ccccc2)oc(-c2ccccc2)c1-c1ccccc1` here?
The activity change, negative = growth inhibition was inconclusive: -30.3% [inhibitor].

For `CSc1ccc(CN(C)C(=O)C23CC4CC(CC(Cl)(C4)C2)C3)cc1`, which Potency is on record?
Its Potency is inconclusive: 25.9 µM [inhibitor, single point].

With `CCCCn1nnnc1SCC(=O)c1ccccc1F` as the molecule, how does the Potency read?
Its Potency is “inactive”.

Which Potency does the source give for `C[C@@H]1C[C@H]2[C@@H]3CCC4=CC(=O)C=C[C@]4(C)[C@@]3(F)[C@@H](O)C[C@]2(C)[C@@]1(O)C(=O)COC(=O)c1cccc(S(=O)(=O)O)c1` here?
Its Potency is “inactive”.

For `O=C(O)CCN1C(=O)/C(=C/c2ccc(-c3nc4ccccc4s3)o2)SC1=S`, which Potency is on record?
Its Potency is inconclusive: 29.1 µM [inhibitor, partial curve, poor fit].

For `Fc1ccccc1-c1nnc2c3ccccc3nc(N3CCOCC3)n12`, which Potency is on record?
Its Potency is inconclusive: 16.4 µM [inhibitor, single point].

Which Potency does the source give for `Cc1[nH]n(-c2nc(-c3cccc([N+](=O)[O-])c3)cs2)c(=O)c1C` here?
Its Potency is active: 20.6 µM.

For `COc1ccc(S(N)(=O)=O)cc1N(C)S(=O)(=O)c1ccccc1`, which Potency is on record?
Its Potency is inconclusive: 32.6 µM [inhibitor, single point].

With `c1csc(-c2nnsc2-c2nc3ccccc3[nH]2)c1` as the molecule, how does the Potency read?
The Potency was inconclusive: 29.1 µM [inhibitor, single point].

With `O=C(COC(=O)c1n[nH]c(=O)c2ccccc12)Nc1ccccc1F` as the molecule, how does the Potency read?
Its Potency is “inactive”.

With `O=Cc1c(N2CCC3(CC2)OCCO3)nc2ccccn2c1=O` as the molecule, how does the Potency read?
The Potency was “inactive”.

With `O=C(CSc1ccc2ccccc2c1)NC1CCCc2ccccc21` (centres undefined) as the molecule, how does the Potency read?
The Potency was inconclusive: 16.4 µM [inhibitor, partial curve, poor fit].

With `CCOc1ccc(NC(=O)Cn2c(=O)n(Cc3nc(-c4ccccc4)no3)c(=O)c3ccccc32)cc1` as the molecule, how does the Potency read?
The Potency was inconclusive: 29.1 µM [inhibitor, single point].

With `CCc1ccc(CNC(=O)C2CC(=O)N(C3CCCC3)C2)cc1` (centres undefined) as the molecule, how does the Potency read?
Its Potency is “inactive”.

Which Potency does the source give for `Cc1c(C(=O)O)oc2c1C(=O)CC(C)(C)C2` here?
Its Potency is “inactive”.

With `COCc1c(C(=O)N2CCN(Cc3ccc4c(c3)OCO4)CC2)oc2ccccc12` as the molecule, how does the Potency read?
Its Potency is inconclusive: 25.9 µM [inhibitor, partial curve, poor fit].

For `CC(Cc1ccco1)NC(=O)c1cccc(S(=O)(=O)N(C)C)c1` (centres undefined), which Potency is on record?
Its Potency is “inactive”.

With `CCOC(=O)C1=C(CS(=O)(=O)c2ccc(C)c(C)c2)NC(=O)NC1c1ccccc1OCC` (centres undefined) as the molecule, how does the Potency read?
Its Potency is inconclusive: 29.1 µM [inhibitor, single point].

For `CC1(C)Cc2c(C#N)c(NCCO)nc(-c3ccco3)c2CO1`, which activity change, negative = growth inhibition is on record?
Its activity change, negative = growth inhibition is inconclusive: -36.5% [inhibitor].

For `C=C(C)Cn1c(C(C)NC(=O)CCC)nc2ccccc21` (centres undefined), which Potency is on record?
Its Potency is inconclusive: 23.1 µM [inhibitor, single point].

With `CCOC(=O)C1=CCN(S(=O)(=O)c2ccccc2C)C1c1ccc(F)cc1` (centres undefined) as the molecule, how does the Potency read?
The Potency was inconclusive: 23.1 µM [inhibitor, single point].

With `CCOC(=O)C(NC(C)=O)(Nc1ccc(S(=O)(=O)Nc2ncccn2)cc1)C(F)(F)F` (centres undefined) as the molecule, how does the Potency read?
The Potency was inconclusive: 29.1 µM [inhibitor, single point].

With `O=C(c1cc(-c2cccs2)on1)N1CCc2ccccc2C1` as the molecule, how does the Potency read?
The Potency was “inactive”.

Which Potency does the source give for `CCN(Cc1cccc(F)c1)C(=O)c1ccc2ccccc2n1` here?
Its Potency is inconclusive: 29.1 µM [inhibitor, single point].

Which Potency does the source give for `CCCN(CC(=O)Nc1ccccc1C)C(=O)c1ccc2ccccc2n1` here?
The Potency was inconclusive: 20.6 µM [inhibitor, single point].

With `O=C(Nc1ccc(N2CCOCC2)c(S(=O)(=O)Nc2ccccc2Cl)c1)c1ccccc1` as the molecule, how does the Potency read?
The Potency was inconclusive: 25.9 µM [inhibitor, single point].

Which Potency does the source give for `COc1ccc(N(CC(=O)N2CCN(c3cccc(OC)c3)CC2)S(=O)(=O)c2c(C)noc2C)cc1` here?
The Potency was inconclusive: 25.9 µM [inhibitor, single point].

For `CCCNS(=O)(=O)c1cc(Br)cc2c1N(C(=O)CC)CC2`, which Potency is on record?
Its Potency is “inactive”.

For `CCCCCCSc1cc(-c2nc3ccc(Cl)cn3c2NCCCC)ccc1OC`, which Potency is on record?
Its Potency is inconclusive: 14.6 µM [inhibitor, partial curve] and inconclusive: 29.1 µM [inhibitor, single point].

With `CCCCc1c(C)[nH]c2c(OC)cccc2c1=S` as the molecule, how does the Potency read?
Its Potency is inconclusive: 12.6 µM [inhibitor, single point].

Which Potency does the source give for `Cc1cc(C(=O)N2CCC2(C)C(=O)O)c(C)o1` (centres undefined) here?
Its Potency is “inactive”.
